Holding throughout (assay): glycan array binding signal (z-score within array); higher = stronger binding
Common to all, as to details: glycan notation: IUPAC condensed, linker removed

For experiment [1], the target named is Gal(b1-4)GlcNAc(b1-2)[Gal(b1-4)GlcNAc(b1-4)]Man(a1-3)[GlcNAc(b1-4)][Gal(b1-4)GlcNAc(b1-2)Man(a1-6)]Man(b1-4)GlcNAc(b1-4)GlcNAc. The method in brief: (§1)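 Columns mapping to the same glycan were averaged after glycan names were converted to IUPAC-condensed notation. The data come from 3228 arrays in the Consortium for Functional Glycomics database, limited to those with an available protein sequence. Binding is reported as a within-array Z-score averaged across arrays of one protein sequence and across linkers.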

Experiment [2] concerns the target Gal(b1-4)GlcNAc(b1-2)[Gal(b1-4)GlcNAc(b1-4)]Man(a1-3)[GlcNAc(b1-4)][Gal(b1-4)GlcNAc(b1-2)[Gal(b1-4)GlcNAc(b1-6)]Man(a1-6)]Man(b1-4)GlcNAc(b1-4)GlcNAc. A digest of the protocol:
as §1

The target of experiment [3] is Gal(b1-4)GlcNAc(b1-2)[Gal(b1-4)GlcNAc(b1-6)]Man(a1-6)[Gal(b1-4)GlcNAc(b1-2)Man(a1-3)]Man(b1-4)GlcNAc(b1-4)GlcNAc. The method in brief: as §1
The target of experiment [4] is Gal(b1-4)GlcNAc(b1-2)[Gal(b1-4)GlcNAc(b1-6)]Man(a1-6)[Gal(b1-4)GlcNAc(b1-2)Man(a1-3)]Man(b1-4)GlcNAc(b1-4)[Fuc(a1-6)]GlcNAc. The method in brief: as §1
Experiment [5] has as its target Gal(b1-4)GlcNAc(b1-2)[Gal(b1-4)GlcNAc(b1-6)]Man(a1-6)[GlcNAc(b1-4)][Gal(b1-4)GlcNAc(b1-2)Man(a1-3)]Man(b1-4)GlcNAc(b1-4)GlcNAc. A digest of the protocol: as §1
The target of experiment [6] is Gal(b1-4)GlcNAc(b1-2)[Gal(b1-4)GlcNAc(b1-6)]Man(a1-6)[GlcNAc(b1-4)][Gal(b1-4)GlcNAc(b1-2)[Gal(b1-4)GlcNAc(b1-4)]Man(a1-3)]Man(b1-4)GlcNAc(b1-4)[Fuc(a1-6)]GlcNAc. The method in brief:
as §1

The target in experiment [7] is Gal(b1-4)GlcNAc(b1-3)Gal(b1-3)GalNAc. The method in brief: as §1
Experiment [8] deals with Gal(b1-4)GlcNAc(b1-3)Gal(b1-3)GlcNAc. The method in brief: as §1
The target in experiment [9] is Gal(b1-4)GlcNAc(b1-3)Gal(b1-4)Glc. A digest of the protocol:
as §1

Experiment [10] deals with Gal(b1-4)GlcNAc(b1-3)Gal(b1-4)GlcNAc. The method in brief:
as §1

Experiment [11] has as its target Gal(b1-4)GlcNAc(b1-3)Gal(b1-4)GlcNAc(b1-2)Man(a1-3)[Gal(b1-4)GlcNAc(b1-3)Gal(b1-4)GlcNAc(b1-2)Man(a1-6)]Man(b1-4)GlcNAc(b1-4)GlcNAc. The method in brief: as §1
Experiment [12] addresses Gal(b1-4)GlcNAc(b1-3)Gal(b1-4)GlcNAc(b1-2)Man(a1-3)[Gal(b1-4)GlcNAc(b1-3)Gal(b1-4)GlcNAc(b1-2)Man(a1-6)]Man(b1-4)GlcNAc(b1-4)[Fuc(a1-6)]GlcNAc. The method in brief: as §1
Experiment [13] concerns the target Gal(b1-4)GlcNAc(b1-3)Gal(b1-4)GlcNAc(b1-2)[Gal(b1-4)GlcNAc(b1-3)Gal(b1-4)GlcNAc(b1-6)]Man(a1-6)[Gal(b1-4)GlcNAc(b1-3)Gal(b1-4)GlcNAc(b1-2)Man(a1-3)]Man(b1-4)GlcNAc(b1-4)GlcNAc. A digest of the protocol: as §1
Experiment [14] deals with Gal(b1-4)GlcNAc(b1-3)Gal(b1-4)GlcNAc(b1-2)[Gal(b1-4)GlcNAc(b1-3)Gal(b1-4)GlcNAc(b1-6)]Man(a1-6)[Gal(b1-4)GlcNAc(b1-3)Gal(b1-4)GlcNAc(b1-2)Man(a1-3)]Man(b1-4)GlcNAc(b1-4)[Fuc(a1-6)]GlcNAc. The method in brief: as §1
In experiment [15] the target is Gal(b1-4)GlcNAc(b1-3)Gal(b1-4)GlcNAc(b1-3)Gal(b1-4)GlcNAc. A digest of the protocol:
as §1

For experiment [16], the target named is Gal(b1-4)GlcNAc(b1-3)Gal(b1-4)GlcNAc(b1-3)Gal(b1-4)GlcNAc(b1-2)Man(a1-3)[Gal(b1-4)GlcNAc(b1-3)Gal(b1-4)GlcNAc(b1-3)Gal(b1-4)GlcNAc(b1-2)Man(a1-6)]Man(b1-4)GlcNAc(b1-4)GlcNAc. The method in brief:
as §1

Experiment [17] deals with Gal(b1-4)GlcNAc(b1-3)Gal(b1-4)GlcNAc(b1-3)Gal(b1-4)GlcNAc(b1-2)Man(a1-3)[Gal(b1-4)GlcNAc(b1-3)Gal(b1-4)GlcNAc(b1-3)Gal(b1-4)GlcNAc(b1-2)Man(a1-6)]Man(b1-4)GlcNAc(b1-4)[Fuc(a1-6)]GlcNAc. The method in brief: as §1
Experiment [18] has as its target Gal(b1-4)GlcNAc(b1-3)Gal(b1-4)GlcNAc(b1-3)Gal(b1-4)GlcNAc(b1-2)[Gal(b1-4)GlcNAc(b1-3)Gal(b1-4)GlcNAc(b1-3)Gal(b1-4)GlcNAc(b1-6)]Man(a1-6)[Gal(b1-4)GlcNAc(b1-3)Gal(b1-4)GlcNAc(b1-3)Gal(b1-4)GlcNAc(b1-2)Man(a1-3)]Man(b1-4)GlcNAc(b1-4)[Fuc(a1-6)]GlcNAc. A digest of the protocol: as §1
The target in experiment [19] is Gal(b1-4)GlcNAc(b1-3)Gal(b1-4)GlcNAc(b1-3)Gal(b1-4)GlcNAc(b1-3)Gal(b1-4)GlcNAc(b1-2)Man(a1-3)[Gal(b1-4)GlcNAc(b1-3)Gal(b1-4)GlcNAc(b1-3)Gal(b1-4)GlcNAc(b1-3)Gal(b1-4)GlcNAc(b1-2)Man(a1-6)]Man(b1-4)GlcNAc(b1-4)GlcNAc. The method in brief:
as §1

This is one part of the list.

B1: SP16664D-bth-476-27-476 (Bacteroides thetaiotaomicron) (protein)
chain: DDLEVGKNIDESAYSGIYENNAYLRDGKSNLVSKVVELHGETYATTVKMGLSKTPNTATSAKVKIDAAYLETYNKAHNTDFALYPQDLVTFANEGILTVNANTKSAEVEMTIRAGEGLQEDKTYAIPVAISDQSSDITIKDEDAKHCIYLVKDMRNAGDAYKGEGVMQGYLFFEVNDVNPLNTLSFQLENGKLLWDVVVLFAANINYDAEAGRPRVQCNPNVQYLLDNNETLLQPLRRRGVKVLLGLLGNHDITGLAQLSEQGAKDFAREVAQYCKAYNLDGVNYDDEYSNSPDLSNPSLTNPSTAAAARLCYETKQAMPDKLVTVFDWGQMYGVATVDGVDAKEWIDIVVANYGSAAYPIGQMTKKQCSGISMEFNLGGGGSLSASKAQSMIDGGYGWFMGFAPSPAKYGSVFSRLQGGGEVLYGSNVAAPTIFYKKNDPTPYKYPDDL
With B1, the “glycan array binding signal (z-score)” value is -0.322 in [1]; -0.399 in [2]; -0.116 in experiment [3]; 0.634 in experiment [4]; -0.27 in experiment [5]; 0.181 in experiment [6]. Further, the “glycan array binding signal (z-score)” value in [7] was -0.387; in experiment [8] it was -0.228; in [9], -0.062; in experiment [10], -0.123; in [11], -0.139; in experiment [12] it was -0.031. For the same molecule, the “glycan array binding signal (z-score)” value is 0.04 in experiment [13]; 0.032 in [14]; 0.004 in [15]; 0.346 in experiment [16]; 0.08 in experiment [17]; 1.01 in experiment [18]. Also, in experiment [19], the “glycan array binding signal (z-score)” value is 0.253.

Values taken from the supplement of paper PMC8728848.
